In PMC4943851:
Results are given in words; binding and its absence hold for the method and conditions named. In cells and extracts the contact can be indirect. Some results given as binding are weak or reduced against the parent protein; the word gives no strength. Sequences can lack the tags named with a protein.

Amino acid sequences for entries named in this document (tags omitted). Residues count along the entry.
UniProt P08138, residues 29-427: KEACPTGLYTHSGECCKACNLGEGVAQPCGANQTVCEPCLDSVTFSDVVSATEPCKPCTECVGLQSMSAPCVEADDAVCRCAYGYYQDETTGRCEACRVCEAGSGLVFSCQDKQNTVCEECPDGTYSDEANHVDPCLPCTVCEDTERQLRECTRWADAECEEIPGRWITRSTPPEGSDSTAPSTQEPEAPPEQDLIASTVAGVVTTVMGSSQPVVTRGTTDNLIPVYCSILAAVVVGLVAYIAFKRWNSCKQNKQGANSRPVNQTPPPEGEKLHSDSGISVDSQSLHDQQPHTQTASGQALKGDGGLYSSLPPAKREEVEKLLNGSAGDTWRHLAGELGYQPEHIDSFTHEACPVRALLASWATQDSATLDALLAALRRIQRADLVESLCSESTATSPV

Target: Myc-NGFR (nerve growth factor receptor) (UniProt P08138)
Test: co-IP; H1299 cells transfected with the tagged plasmids; ~500 to 1000 ug of proteins incubated with the indicated antibody at 4°C for 4 hr or overnight, protein A or G beads, washed at least three times with lysis buffer; immunoblot

binding: binds
B1: HA-MDMX (protein, UniProt O15151 1-490)
chain: MTSFSTSAQCSTSDSACRISPGQINQVRPKLPLLKILHAAGAQGEMFTVKEVMHYLGQYIMVKQLYDQQEQHMVYCGGDLLGELLGRQSFSVKDPSPLYDMLRKNLVTLATATTDAAQTLALAQDHSMDIPSQDQLKQSAEESSTSRKRTTEDDIPTLPTSEHKCIHSREDEDLIENLAQDETSRLDLGFEEWDVAGLPWWFLGNLRSNYTPRSNGSTDLQTNQDVGTAIVSDTTDDLWFLNESVSEQLGVGIKVEAADTEQTSEEVGKVSDKKVIEVGKNDDLEDSKSLSDDTDVEVTSEDEWQCTECKKFNSPSKRYCFRCWALRKDWYSDCSKLTHSLSTSDITAIPEKENEGNDVPDCRRTISAPVVRPKDAYIKKENSKLFDPCNSVEFLDLAHSSESQETISSMGEQLDNLSEQRTDTENMEDCQNLLKPCSLCEKRPRDGNIIHGRTGHLVTCFHCARRLKKAGASCPICKKEIQLVIKVFIA
